In the supplement of paper PMC3334620:
Whole data set: some 33,000 sequences, median “E-score (-0.5 to 0.5)” near -0.056, cut for the highest 2% near 0.38. Some of the results follow.

molecular target: Stb4 (UniProt P50104); assay: PBM E-score (8-mer binding enrichment) (E-score (-0.5 to 0.5)); higher = stronger / more preferred TF binding; most listed sequences are background and not binding sites; details: protein concentration: 200 nM; construct: GST-DNA-binding domain
Procedure, shortened: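 Universal all-10-mer Agilent arrays, fresh or stripped once, were converted to double-stranded form by primer extension. GST-tagged yeast transcription factors from PURExpress in vitro transcription/translation, full-length or DNA-binding domain only, were applied at about 100-200 nM and detected with fluorescent anti-GST. After masliner normalisation, the Universal PBM Analysis Suite scored each ungapped eight-base word together with its reverse complement by E-score.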

Row | Sequence | PBM E-score
1 | CCTTCTCA | -0.243
2 | CTTTGTGA | -0.0394
3 | ACCCGGCC | 0.297
4 | AAAGAGTA | -0.136
5 | AGCTTTGA | -0.0782
6 | CGGAAGTC | 0.414
7 | CCTGAAAG | -0.257
8 | GATTGGTA | 0.0149
9 | AGGCAACG | -0.0947
10 | CCTCGAAG | -0.0456
11 | AGGTTATA | -0.0431
12 | ATAAAGTC | -0.0705
13 | CCGTAGTA | 0.162
14 | GGCTTCAA | -0.066
15 | GCTGAACA | -0.0735
16 | ATACTGAT | -0.0055
17 | CAGGGTAC | -0.123
18 | CAGCCGGC | 0.318
19 | AACCCGAT | 0.285
20 | AGAAGGCT | -0.272
21 | GGGAGTGA | 0.046
22 | CTAACCAA | -0.111
23 | CCTGACCC | 0.0145
24 | CAGCGCTA | -0.0971
25 | TACGGTAA | 0.111

Row | Sequence | PBM E-score
26 | CTATACTC | -0.0193
27 | AGCCGCCC | 0.0992
28 | CTCGCGGC | 0.131
29 | AGTCGCAC | -0.174
30 | AATTCTTG | -0.153
31 | CGATTCCC | 0.137
32 | AGTGAGTG | -0.0801
33 | ACAAAATA | 0.0175
34 | CCGAACAG | 0.4
35 | CGTGTAGC | -0.0116
36 | GATGAATC | 0.0471
37 | ACTCTAAC | -0.0475
38 | ACATCACC | 0.0212
39 | CCATAAAA | 0.0242
40 | ACAATATG | 0.0625
41 | CACTTACG | 0.1
42 | AACGCCTG | -0.214
43 | CTTGAACC | 0.019
44 | AATATATT | 0.154
45 | GACAGCCA | -0.217
46 | TCACAGAA | -0.117
47 | ACTCTCCA | -0.121
48 | ATCCCTTC | -0.183
49 | AACGACGC | -0.274
50 | CAACCCGC | 0.149

Row | Sequence | PBM E-score
51 | CGCCCAAA | -0.1
52 | CGCTGAAC | 0.00896
53 | GCCAGTGA | -0.162
54 | CAAGCCTA | -0.239
55 | CTTTGGAC | 0.0624
56 | ATTCTCGG | 0.425
57 | GTCACCAC | -0.103
58 | ACCAACGA | -0.0405
59 | CAAGGTCC | -0.0505
60 | AGCTTTCG | 0.0251
61 | GCACAAGA | 0.0127
62 | TCCCGAGA | 0.453
63 | GCGGGCTA | -0.0737
64 | ACGAGCAT | -0.255
65 | CCGTACTA | 0.12
66 | GATTACTA | 0.0638
67 | AAACCCCG | 0.254
68 | CACTAGCG | -0.188
69 | CCAGGGTA | -0.0473
70 | CCTAGTTA | 0.0148
71 | CATCGTAG | -0.213
72 | CCCACTCA | -0.31
73 | GGCCATAC | 0.16
74 | ACGAGTCC | 0.0129
75 | GGACCAAA | 0.0255

Row | Sequence | PBM E-score
76 | ACGCTTAC | -0.0744
77 | CATATCAC | -0.0932
78 | ATTGTAGC | 0.0369
79 | ATCTATCC | 0.333
80 | AGGTATCA | -0.232
81 | ACGTTACG | -0.201
82 | TATCCCAA | 0.0571
83 | ACGACACG | 0.0237
84 | AGACTTAG | -0.202
85 | GTAACCCA | -0.0452
86 | AGGAACAA | -0.104
87 | ACTAAGAA | -0.0529
88 | TATGAGGA | -0.143
89 | AGTTCGGC | 0.357
90 | TACATTGA | -0.119
91 | AATAGCGC | -0.154
92 | CTGGCCCC | 0.0187
93 | CTACTGGC | -0.0912
94 | AACACTCG | 0.0221
95 | GGTCCACA | -0.131
96 | CTCTGAGC | -0.168
97 | AAAGGACC | -0.0172
98 | ATGACCAA | 0.0323
99 | CTCCAGCA | -0.28
100 | CCGAACAC | 0.372

Row | Sequence | PBM E-score
101 | TCGTAAGA | 0.0201
102 | GTGTAACA | -0.181
103 | AAGAGAAT | 0.0169
104 | ATTGCTAC | -0.0804
105 | AAGTGTTC | 0.172
106 | CGGGAACC | 0.301
107 | AAGTATGA | -0.0353
108 | GTAGTCAA | -0.1
109 | GGATAGCC | 0.248
110 | GCCCCTAC | -0.104
111 | AGTTAAAA | 0.045
112 | ACAAGGTA | 0.0227
113 | AAACTCCG | 0.301
114 | GTATATAC | -0.0897
115 | ACCTTTAA | 0.0727
116 | TCGACGCA | -0.0683
117 | CTGTCATC | -0.138
118 | CATTAAGC | -0.0965
119 | CTCGTCCA | -0.235
120 | AAGATCGA | 0.0385
121 | GTCATGAA | -0.0398
122 | AATGTGAT | -0.15
123 | AGGCTACT | -0.15
124 | ACGGTCGC | -0.121
125 | GATTCACC | 0.029

Row | Sequence | PBM E-score
126 | GTCGACCA | -0.0625
127 | AGCGCACC | 0.00643
128 | AGGGTGTA | -0.093
129 | AAATGAGG | -0.113
130 | GCCTCGCC | 0.0101
131 | ATGTCGAC | -0.138
132 | CATCTCAG | -0.198
133 | CATGCAAA | -0.141
134 | ACGACACC | 0.0194
135 | CAGCTGCG | 0.102
136 | CTATCGAA | -0.226
137 | AACCACCG | 0.1
138 | ACGCGGAA | 0.329
139 | GTACTTCA | 0.0185
140 | ACCGTAGA | -0.0236
141 | AAGGGCGG | 0.0702
142 | CGTACACG | -0.0989
143 | AGCACTCA | -0.0646
144 | GACATTTA | -0.124
145 | CATCATCA | -0.13
146 | GGCCAAAA | 0.00575
147 | AGATGCGG | 0.0776
148 | CCAACCTA | -0.116
149 | CATAACAC | -0.0742
150 | CACCATAG | -0.121

Row | Sequence | PBM E-score
151 | CGGTCTGC | -0.0321
152 | AATTCCAT | -0.0656
153 | CGACGAAA | -0.0666
154 | GATAACCC | 0.0517
155 | ATTGTCCC | 0.116
156 | GACTTGGA | 0.0627
157 | CGTTGGAC | -0.167
158 | ACGGTGGC | -0.0688
159 | AAAGAAGA | -0.0578
160 | AACGCAGG | -0.122
161 | CCGGTATC | 0.272
162 | ACCCGGTG | 0.199
163 | CAAATGGC | -0.166
164 | ACGATGAA | -0.251
165 | AAAACGCA | -0.0311
166 | ACATTTGC | 0.0649
167 | ACAGAATG | -0.144
168 | GGCCGCTA | 0.0133
169 | ACAACCCG | 0.253
170 | AATGGACC | 0.121
171 | ATAGTATC | 0.0279
172 | AGCAAGTA | -0.226
173 | ACCTGATG | -0.173
174 | AGGGTTAA | -0.149
175 | CTGAGGAA | -0.153

Row | Sequence | PBM E-score
176 | CTGCTATC | 0.0488
177 | GGTCTTGA | 0.0566
178 | AATTCGGG | 0.39
179 | AAAGCCAG | -0.246
180 | ACACAAGC | -0.23
181 | TGACTTAA | -0.174
182 | AAATTCAA | -0.229
183 | ACACTACT | -0.0397
184 | CGAATCCC | 0.21
185 | CATCCTAA | -0.079
186 | GAGAATAC | 0.00299
187 | CATGACAA | -0.0893
188 | CAGCCAGG | -0.369
189 | CCTCTAGC | -0.336
190 | ACGCCATA | -0.131
191 | CCGCATGA | -0.00551
192 | AAGCCGCG | 0.184
193 | CCCCGTCC | 0.0876
194 | ACTGCCAG | -0.185
195 | GGTCTTAA | -0.127
196 | AACACGTG | -0.0809
197 | CTTTGTAC | -0.0949
198 | ATACCCAT | -0.105
199 | TCTTGAAA | -0.0507
200 | CTAGGCCA | -0.106

Row | Sequence | PBM E-score
201 | CTAGCATC | 0.0741
202 | ACAACTGT | -0.209
203 | AAGAGCTC | -0.0564
204 | CGGGACGC | 0.304
205 | ACCCGATC | 0.333
206 | AAGTGCAG | -0.212
207 | CACCTAGG | -0.179
208 | AATTTGGG | -0.136
209 | ACTGCGAG | -0.261
210 | AGTGCCTA | -0.176
211 | AACTCGAC | -0.00661
212 | AGAGCGCA | -0.281
213 | ATCCCAAT | -0.193
214 | AAGAGGGT | -0.331
215 | AGTCAATC | -0.156
216 | GAGCATTA | -0.133
217 | AGGAACGC | -0.097
218 | CTTTCGGA | 0.432
219 | ATCTCCTA | -0.339
